The supplement of paper PMC8728848
The other results are listed elsewhere or left out.

Key:
Test in all cases: glycan array binding signal (z-score within array); higher = stronger binding
Settings in all cases: glycan notation: IUPAC condensed, linker removed
[1] = molecular target: Fuc(a1-3)[Gal(b1-4)]GlcNAc(b1-4)Gal(b1-4)[Fuc(a1-3)]GlcNAc(b1-4)Gal(b1-4)[Fuc(a1-3)]GlcNAc
In short: (§1)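 The Consortium for Functional Glycomics database supplied 3228 glycan arrays, of which those lacking an available protein sequence were dropped. The binding signal, a within-array Z-score, was averaged across arrays of the same protein sequence and across linkers. Negative scores can be read as non-binding.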

[2] = molecular target: Fuc(a1-3)[Gal3S(b1-4)]GlcNAc
In short: as §1

[3] = molecular target: Fuc(a1-3)[GalNAc(b1-4)]Gal(b1-4)GlcNAc
In short: as §1

Fuc(a1-4)GlcNAc = molecular target: Fuc(a1-4)GlcNAc
In short: as §1

Fuc(b1-3)GlcNAc = molecular target: Fuc(b1-3)GlcNAc
In short: as §1

Gal(a1-2)Gal = molecular target: Gal(a1-2)Gal
In short: as §1

Gal(a1-3)Gal = molecular target: Gal(a1-3)Gal
In short: as §1

Gal(a1-3)Gal(b1-3)Glc = molecular target: Gal(a1-3)Gal(b1-3)Glc
In short: as §1

Gal(a1-3)Gal(b1-3)GlcNAc = molecular target: Gal(a1-3)Gal(b1-3)GlcNAc
In short: as §1

Gal(a1-3)Gal(b1-4)GlcNAc = molecular target: Gal(a1-3)Gal(b1-4)GlcNAc
In short: as §1

[4] = molecular target: Gal(a1-3)Gal(b1-4)[Fuc(a1-3)]GalNAc
In short: as §1

Gal(a1-3)GlcNAc = molecular target: Gal(a1-3)GlcNAc
In short: as §1

[5] = molecular target: Gal(a1-3)[Gal(a1-4)]Gal(b1-4)GlcNAc
In short: as §1

Gal(a1-4)Gal(b1-4)Gal = molecular target: Gal(a1-4)Gal(b1-4)Gal
In short: as §1

Gal(a1-4)Gal(b1-4)GalNAc = molecular target: Gal(a1-4)Gal(b1-4)GalNAc
In short: as §1

Gal(a1-4)GlcNAc = molecular target: Gal(a1-4)GlcNAc
In short: as §1

Gal(a1-6)Glc = molecular target: Gal(a1-6)Glc
In short: as §1

Gal(b1-2)Gal = molecular target: Gal(b1-2)Gal
In short: as §1

Gal(b1-3)Gal = molecular target: Gal(b1-3)Gal
In short: as §1

Gal(b1-3)GalNAc = molecular target: Gal(b1-3)GalNAc
In short: as §1

[6] = molecular target: Gal(b1-3)GalNAc(b1-3)Gal(a1-4)Gal(b1-4)Glc
In short: as §1

[7] = molecular target: Gal(b1-3)GalNAc(b1-3)Gal(b1-4)Glc
In short: as §1

[8] = molecular target: Gal(b1-3)GalNAc(b1-3)Gal(b1-4)GlcNAc
In short: as §1

[9] = molecular target: Gal(b1-3)GalNAc(b1-4)Gal(b1-4)Glc
In short: as §1

[10] = molecular target: Gal(b1-3)GalNAc(b1-4)[Neu5Ac(a2-3)]Gal(b1-4)Glc
In short: as §1

[11] = molecular target: Gal(b1-3)[Fuc(a1-4)]GlcNAc
In short: as §1

[12] = molecular target: Gal(b1-3)[Fuc(a1-4)]GlcNAc(b1-3)Gal(b1-4)GlcNAc
In short: as §1

[13] = molecular target: Gal(b1-3)[Fuc(a1-4)]GlcNAc(b1-3)Gal(b1-4)[Fuc(a1-3)]GlcNAc
In short: as §1

[14] = molecular target: Gal(b1-3)[GlcNAc(b1-6)]GalNAc
In short: as §1

[15] = molecular target: Gal(b1-3)[GlcNAc(b1-6)]GlcNAc
In short: as §1

[16] = molecular target: Gal(b1-3)[Neu5Ac(a2-6)]GalNAc
In short: as §1

[17] = molecular target: Gal(b1-3)[Neu5Ac(a2-6)]GlcNAc
In short: as §1

[18] = molecular target: Gal(b1-3)[Neu5Ac(a2-6)]GlcNAc(a1-4)Gal(b1-4)Glc
In short: as §1

[19] = molecular target: Gal(b1-3)[Neu5Ac(b2-6)]GlcNAc
In short: as §1

[20] = molecular target: Gal(b1-4)GalNAc(a1-3)[Fuc(a1-2)]Gal(b1-4)GlcNAc
In short: as §1

[21] = molecular target: Gal(b1-4)GalNAc(b1-3)[Fuc(a1-2)]Gal(b1-4)GlcNAc
In short: as §1

Gal(b1-4)Glc = molecular target: Gal(b1-4)Glc
In short: as §1

B1: chitinase 3-like protein 2 (Homo sapiens) (protein)
chain: YKLVCYFTQWSQDRQEPGKFTPENIDPFLCSHLIYSFASIENNKVIIKDKSEVMLYQTINSLKTKNPKLKILLSIGGYLFGSKGFHPMVDSSTSRLEFINSIILFLRNHNFDGLDVSWIYPDQKENTHFTVLIHELAEAFQKDFTKSTKERLLLTAGVSAGRQMIDNSYQVEKLAKDLDFINLLSFDFHGSWEKPLITGHNSPLSKGWQDRGPSSYYNVEYAVGYWIHKGMPSEKVVMGIPTYGHSFTLASAETTVGAPASGPGAAGPITESSGFLAYYEICQFLKGAKITRLQDQQVPYAVKGNQWVGYDDVKSMETKVQFLKNLNLGGAMIWSIDMDDFTGKSCNQGPYPLVQAVKRSLGSL
Which “glycan array binding signal (z-score)” value [1] does the source give for B1 here?
The value was -0.202.

And the “glycan array binding signal (z-score)” value [2]?
The value was -0.163.

And the “glycan array binding signal (z-score)” value [3]?
Its value is -0.196.

And the “glycan array binding signal (z-score)” value (Fuc(a1-4)GlcNAc)?
Its value is -0.275.

And the “glycan array binding signal (z-score)” value (Fuc(b1-3)GlcNAc)?
Its value is -0.028.

And the “glycan array binding signal (z-score)” value (Gal(a1-2)Gal)?
Its value is -0.224.

And the “glycan array binding signal (z-score)” value (Gal(a1-3)Gal)?
The value was -0.265.

And the “glycan array binding signal (z-score)” value (Gal(a1-3)Gal(b1-3)Glc)?
The value was -0.178.

What about the “glycan array binding signal (z-score)” value (Gal(a1-3)Gal(b1-3)GlcNAc) of the same binder?
Its value is -0.171.

What about the “glycan array binding signal (z-score)” value (Gal(a1-3)Gal(b1-4)GlcNAc) of the same binder?
The value was -0.124.

What about the “glycan array binding signal (z-score)” value [4] of the same binder?
Its value is -0.177.

And the “glycan array binding signal (z-score)” value (Gal(a1-3)GlcNAc)?
The value was -0.194.

And the “glycan array binding signal (z-score)” value [5]?
Its value is -0.176.

And the “glycan array binding signal (z-score)” value (Gal(a1-4)Gal(b1-4)Gal)?
Its value is -0.093.

And the “glycan array binding signal (z-score)” value (Gal(a1-4)Gal(b1-4)GalNAc)?
Its value is -0.091.

And the “glycan array binding signal (z-score)” value (Gal(a1-4)GlcNAc)?
Its value is -0.21.

What about the “glycan array binding signal (z-score)” value (Gal(a1-6)Glc) of the same binder?
The value was -0.259.

And the “glycan array binding signal (z-score)” value (Gal(b1-2)Gal)?
Its value is -0.205.

And the “glycan array binding signal (z-score)” value (Gal(b1-3)Gal)?
Its value is -0.244.

And the “glycan array binding signal (z-score)” value (Gal(b1-3)GalNAc)?
Its value is -0.218.

What about the “glycan array binding signal (z-score)” value [6] of the same binder?
Its value is -0.238.

What about the “glycan array binding signal (z-score)” value [7] of the same binder?
Its value is -0.269.

And the “glycan array binding signal (z-score)” value [8]?
The value was -0.233.

What about the “glycan array binding signal (z-score)” value [9] of the same binder?
The value was -0.238.

What about the “glycan array binding signal (z-score)” value [10] of the same binder?
Its value is -0.151.

And the “glycan array binding signal (z-score)” value [11]?
Its value is -0.233.

What about the “glycan array binding signal (z-score)” value [12] of the same binder?
Its value is -0.248.

And the “glycan array binding signal (z-score)” value [13]?
Its value is -0.163.

And the “glycan array binding signal (z-score)” value [14]?
Its value is -0.279.

And the “glycan array binding signal (z-score)” value [15]?
The value was -0.209.

What about the “glycan array binding signal (z-score)” value [16] of the same binder?
The value was -0.26.

And the “glycan array binding signal (z-score)” value [17]?
The value was -0.12.

What about the “glycan array binding signal (z-score)” value [18] of the same binder?
The value was -0.201.

What about the “glycan array binding signal (z-score)” value [19] of the same binder?
Its value is -0.232.

What about the “glycan array binding signal (z-score)” value [20] of the same binder?
Its value is -0.181.

And the “glycan array binding signal (z-score)” value [21]?
Its value is -0.197.

What about the “glycan array binding signal (z-score)” value (Gal(b1-4)Glc) of the same binder?
The value was -0.037.
